Reference: article PMC4336329 (PLoS ONE, 2015)
Screen size: about 310,000 compounds; about 14,000 (4.5%) showed an effect of 50% or more. The effect is printed as a negative number. The list shows a part of the results.

Each compound was assayed against human ether-à-go-go-related gene (hERG) potassium channel (human, UniProt Q12809) (assay: primary screen, population patch clamp on CHO cells stably expressing hERG).
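Note: peak tail current of the secondary pulse compared with the same well before compound.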

human ether-à-go-go-related gene (hERG) potassium channel, sequence (Q12809 whole entry, looked up): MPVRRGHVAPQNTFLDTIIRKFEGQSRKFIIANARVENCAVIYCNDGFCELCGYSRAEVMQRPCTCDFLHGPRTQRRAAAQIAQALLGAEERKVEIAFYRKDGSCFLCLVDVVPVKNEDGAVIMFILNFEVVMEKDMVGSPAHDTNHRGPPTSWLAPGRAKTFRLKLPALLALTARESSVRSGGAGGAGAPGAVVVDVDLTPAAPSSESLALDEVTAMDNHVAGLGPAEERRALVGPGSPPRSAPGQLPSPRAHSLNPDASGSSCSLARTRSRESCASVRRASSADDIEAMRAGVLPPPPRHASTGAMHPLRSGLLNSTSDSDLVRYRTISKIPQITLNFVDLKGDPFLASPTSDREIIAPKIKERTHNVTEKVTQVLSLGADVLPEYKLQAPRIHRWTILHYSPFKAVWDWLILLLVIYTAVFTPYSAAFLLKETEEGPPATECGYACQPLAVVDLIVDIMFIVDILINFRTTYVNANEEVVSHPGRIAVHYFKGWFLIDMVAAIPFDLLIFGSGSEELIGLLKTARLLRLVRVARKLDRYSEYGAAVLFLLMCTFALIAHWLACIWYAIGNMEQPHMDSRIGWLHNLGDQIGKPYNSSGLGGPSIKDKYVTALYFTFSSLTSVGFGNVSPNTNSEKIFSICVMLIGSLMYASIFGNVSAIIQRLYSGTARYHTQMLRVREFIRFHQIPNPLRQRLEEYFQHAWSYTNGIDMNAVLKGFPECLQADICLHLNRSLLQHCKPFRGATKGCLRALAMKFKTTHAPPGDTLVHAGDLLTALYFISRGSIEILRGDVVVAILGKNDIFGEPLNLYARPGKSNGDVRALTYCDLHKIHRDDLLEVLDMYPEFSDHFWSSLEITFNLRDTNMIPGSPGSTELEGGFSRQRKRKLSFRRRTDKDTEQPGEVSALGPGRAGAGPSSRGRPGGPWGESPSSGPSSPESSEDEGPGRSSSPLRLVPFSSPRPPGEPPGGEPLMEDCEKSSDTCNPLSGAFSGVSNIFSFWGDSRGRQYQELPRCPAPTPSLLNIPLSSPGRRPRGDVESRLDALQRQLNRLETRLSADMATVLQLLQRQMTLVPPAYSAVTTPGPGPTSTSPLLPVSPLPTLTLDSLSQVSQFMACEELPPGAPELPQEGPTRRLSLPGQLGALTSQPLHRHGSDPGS

SMILES	hERG current change (%, negative = inhibition) at 10uM [%]
Cc1ccc(-c2noc(CSc3nnc(-c4cccs4)n3C)n2)cc1	7.56
CCOc1ccccc1C1CC(c2ccc(F)cc2)Nc2nc(N)nn21 (stereo not drawn)	-48.1
O=c1cc(-c2ccccc2)c2ccc(O)c(CN3CCCCC3)c2o1	-8.89
Cc1cc(=O)c(C(=O)O)nn1-c1ccccc1[N+](=O)[O-]	6.49
Cc1ccc(Cl)cc1NC(=O)COC(=O)CC1CC2CCC1C2 (stereo not drawn)	-0.084
CCN(CC)CCNc1ccnc2cc(Cl)ccc12	-31.5
Cc1ccc(S(=O)(=O)Oc2ccc(/C=N/NC(=O)c3cccnc3)cc2)cc1	9.82
CN(CCc1ccccn1)C(=S)Nc1ccc(Cl)c(Cl)c1	-3.59
COc1cc(C(=O)NCCNC(=O)c2ccc(C)nc2)cc(OC)c1OC	11.8
COc1ccc(/C=C/C(=O)N2CCN(C)CC2)cc1OC	6.7
CC(/C=C1\NC(=S)NC1=O)=C\c1ccccc1	19.4
Cc1ccc(CNC(=O)c2oc3ccc(S(=O)(=O)N4CCC5(CC4)OCCO5)cc3c2C)cc1	-3.35
Cc1cc(C(=O)Nc2cccnc2)on1	-3.6
COc1ccc(N2C(=O)c3cccc4c(N(C)CCO)ccc(c34)C2=O)cc1	16.1
CC1CN(C(=O)Nc2ccc(F)cc2)C2(CCCCCC2)O1 (stereo not drawn)	4.2
Cc1ccc(CSCC(=O)Nc2ccc(F)cc2)cc1	-11.2
N#Cc1ccc(NC(=S)Nc2ccccc2)cc1	1.45
CC(NC(=O)CCn1ccc2cc(S(=O)(=O)N3CCCC3)ccc21)c1ccccc1 (stereo not drawn)	0.519
CCSc1nc2c(c(=O)[nH]c(=O)n2C)n1C/C=C(/C)Cl	-17.2

SMILES	hERG current change (%, negative = inhibition) at 10uM [%]
CCOC(=O)CCCNC(=O)c1cncc(O)c1.Cl	-7.47
CCOC(=O)/C=C/C(=O)Nc1ccc(S(=O)(=O)N2CCc3ccccc32)cc1	5.87
COC(=O)C1=CN(c2cccc(Cl)c2)C=C(C(=O)OC)C1c1cccc(OC)c1	18.1
COc1ccc(NC(=O)CSc2nc3n[nH]c(C)c3c(=N)n2-c2ccc(Cl)c(C)c2)cc1OC	16
COc1ccc(C2=NO[C@@H]3C(=O)N(Cc4ccccc4)C(=O)[C@H]23)c(OC)c1	12.8
Cc1oc(-c2ccc(Cl)cc2)nc1CN1CCC(C(=O)NCc2cccs2)CC1	-61.5
CCCCNC(=O)COc1ccccc1[N+](=O)[O-]	-14
O=C(NCCCN=C1NS(=O)(=O)c2ccccc21)c1ccccc1Cl	4.04
COc1ccc(C/C(C)=N\NC(=O)c2cn(C)c3ccccc23)cc1OC	12.7
CCCN1CCN(CCCNC(=O)c2cc3c(=O)[nH]c4ccc(C)cc4c3s2)CC1	-29.5
CC(=NCc1ccccc1)C1=C(O)COC1=O	11.8
CCn1c(CNC(=O)c2ccccc2F)nnc1SCCOc1ccccc1	-7.93
Cc1ccc(NC(=O)Nc2cccc3ccccc23)cc1	19.5
O=C(O)c1cc(-c2ccccc2)nn1CC1CC(c2cccnc2)=NO1 (stereo not drawn)	6.86
COc1ccccc1NC(=O)Cn1nnc(C(=O)NCc2cccs2)c1N	3.37
CCOC(=O)c1c(C2CC2)csc1NC(=O)COC(=O)CCS(=O)(=O)c1ccc(C)cc1	5.79
OCCOCCn1c(C2CCCN2c2nc(-c3ccc(F)cc3)cs2)nc2cc(Cl)c(Cl)cc21 (stereo not drawn)	-28.7
COc1ccccc1CNC(=O)COC(=O)CSc1ccc(Cl)cc1	-11
CC(C)COc1ccc(C(=O)Nc2ccc(NC(=O)c3ccco3)cc2)cc1	10

SMILES	hERG current change (%, negative = inhibition) at 10uM [%]
O=C1c2ccsc2SCCN1Cc1ccc(Cl)cc1Cl	-15.3
COc1ccc(C(CC(=O)Nc2ccccc2OC)n2cccc2)cc1 (stereo not drawn)	-16.2
Cc1nnc(C)n1/N=C/c1ccc(C(C)C)cc1	-20.7
C(=C\c1ccccc1)/C=N/Nc1nncc(-c2ccccc2)n1	-22.1
Cc1ccc(C(=O)N/N=C\C=C\c2ccccc2[N+](=O)[O-])cn1	-0.634
C=Cn1cc[n+](CC(=O)c2ccc(Cl)c(Cl)c2)c1.[Br-]	0.216
O=C1/C(=C/c2ccc(O)c([N+](=O)[O-])c2)SC(=S)N1Cc1ccccc1	11.1
Cc1occc1C(=O)N/N=C/c1ccc(Cl)c([N+](=O)[O-])c1	7.04
CC(=O)N1CCC(=NNC(=O)CSc2cc(C)c(Br)cc2C)CC1	6.38
Cc1cc(C)cc(NC(=O)CSc2ncc(S(=O)(=O)c3ccccc3)c(=O)[nH]2)c1	13.6
CCN1CCN(Cc2cc(=O)oc3cc4c(cc23)CCC4)CC1	-29.7
CCCCCn1c(=O)c(C(=O)Nc2ccccc2N)c(O)c2ccccc21	21.4
CNC(=O)CC1C(=O)N(c2ccc(Cl)cc2)C(=S)N1CCc1ccc(OC)c(OC)c1 (stereo not drawn)	-15.9
CCOC(=O)c1c(NC(=O)c2c(-c3ccccc3)noc2C)sc(C)c1-c1ccccc1	-8.32
COc1ccc(N2CS(=O)CC2=O)cc1 (stereo not drawn)	9.7
CCN(C(=O)CSc1nc(-c2cccs2)nc2ccccc12)C1CCS(=O)(=O)C1 (stereo not drawn)	-95.6
Oc1c(Br)cc(Br)cc1/C=N/Nc1ccc(Cl)nn1	23.4
Cc1cc(C)n2c(SCC(=O)N(CC(C)C)c3c(N)n(CC(C)C)c(=O)[nH]c3=O)nnc2n1	29.8
CC(C)C[C@H](NC(=O)c1[nH]cnc1C(=O)N[C@@H](Cc1ccccc1)C(=O)OC(C)(C)C)C(=O)OCc1ccccc1	7.3
